# The source gives no read counts; variants with many changes may rest on few reads.
# B1: CPEB3 Ribozyme (parent)
# chain: UAACAGGGGGCCACAGCAGAAGCGUUCACGUCGCAGCCCCUGUCAGAUUCUGGUGAAUCUGCGAAUUCUGCUGUAUAUCUC
# Variants of: B1
# Experiment: self-cleavage, relative activity (ratio to wild type); higher = more cleavage; in vitro, sequencing
# Outline: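 After error-prone PCR and barcoding, CPEB3 ribozyme mutant libraries were transcribed with T7 RNA polymerase at 37°C for 5 hours, then given 15 min with DNase I before an EDTA stop, and they cleaved during both steps. Reverse transcription with template switching preceded Illumina sequencing. Relative activity divides a variant's cleaved/total read fraction by the unmutated ribozyme's. At least 5 reads were required per variant, and three batches were averaged.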
row,Variant,self-cleavage
1,UAACAGGGGGCCACAGCAGAAGCGUUCACGUCGCAGCCCCUGUCAGACUCUGGUGCAUCUGCGAAUUCCGCUGUAUAUCUC,0.16
2,UAACAGGGGGCCACAGCAGAAGCGUUCACGUCGCAGCCCCUGUCAGACUCUGGUGGACCUGCGAAUUCUGCUGUAUGUCUC,0.07
3,UAACAGGGGGCCACAGCAGAAGCGUUCACGUCGCAGCCCCUGUCAGACUCUGGUGUAUAUGCGAAUUCUGCUGUAUAUCUC,0.18
4,UAACAGGGGGCCACAGCAGAAGCGUUCACGUCGCAGCCCCUGUCAGACUCUGGUGUAUCUGCGAAUUCCGCUGUAUAUCUC,0.2
5,UAACAGGGGGCCACAGCAGAAGCGUUCACGUCGCAGCCCCUGUCAGACUCUGGUGAGUCUGCGAAUUCUGCUGUAUAUUUC,1.25
6,UAACAGGGGGCCACAGCAGAAGCGUUCACGUCGCAGCCCCUGUCAGACUCUGGUGAGUCUGCAAAUUCUGCUGUAUAUCUC,0.96
7,UAACAGGGGGCCACAGCAGAAGCGUUCACGUCGCAGCCCCUGUCAGACUCUGGUGAGUCUGCGAAUACUGCUGUAUAUCUC,0.35
8,UAACAGGGGGCCACAGCAGAAGCGUUCACGUCGCAGCCCCUGUCAGACUCUGGUGAGUCUGCGAAUUCCGCUGUAUAUCUC,0.76
9,UAACAGGGGGCCACAGCAGAAGCGUUCACGUCGCAGCCCCUGUCAGACUCUGGUGAUUCUGCGAAUUCUGCGGUAUAUCUC,0.47
10,UAACAGGGGGCCACAGCAGAAGCGUUCACGUCGCAGCCCCUGUCAGACUCUGGUGAAUCUGCGGAUUCUGCUGUAUUUCUC,0.38
11,UAACAGGGGGCCACAGCAGAAGCGUUCACGUCGCAGCCCCUGUCAGACUCUGGUGAAUCUGCGGAUUCCGCCGUAUAUCUC,0.16
12,UAACAGGGGGCCACAGCAGAAGCGUUCACGUCGCAGCCCCUGUCAGACUCUGGUGAAUCUGCGGAUUCGGCUGUAUAUCUC,0.22
13,UAACAGGGGGCCACAGCAGAAGCGUUCACGUCGCAGCCCCUGUCAGACUCUGGUGAAUCUGCGGAUUCUGCUGGAUAUCUC,0.5
14,UAACAGGGGGCCACAGCAGAAGCGUUCACGUCGCAGCCCCUGUCAGACUCUGGUGAAUCUGCGAGUUCUGCGGUAUAUCUC,0.26
15,UAACAGGGGGCCACAGCAGAAGCGUUCACGUCGCAGCCCCUGUCAGACUCUGGUGAAUCUGCGAAUUCUGCUGUAUGACUC,1.07
16,UAACAGGGGGCCACAGCAGAAGCGUUCACGUCGCAGCCCCUGUCAGACUCUGGUGAAUCUGCGAAUUCUGCUGUAUUUCCC,0.78
17,UAACAGGGGGCCACAGCAGAAGCGUUCACGUCGCAGCCCCUGUCAGACUCUGGUGAAUCUGCGAAUUAUGCAGUAUAUCUC,0.19
18,UAACAGGGGGCCACAGCAGAAGCGUUCACGUCGCAGCCCCUGUCAGACUCUGAUGAAUCUGCGAAUUCUGCAGUAUAUCUC,0.4
19,UAACAGGGGGCCACAGCAGAAGCGUUCACGUCGCAGCCCCUGUCAGACCCUGGUGAAUCCGCGAACUCUGCUGUAUAUCUC,0.15
20,UAACAGGGGGCCACAGCAGAAGCGUUCACGUCGCAGCCCCUGUCAGACGCUGGUGGAUCUGCGAAUUCUGCUGUAUAUCUC,0.37
21,UAACAGGGGGCCACAGCAGAAGCGUUCACGUCGCAGCCCCUGUCAGACUCAGGAGGCUCUGCGAAUUCUGCUGUAUAUCUC,0.4
22,UAACAGGGGGCCACAGCAGAAGCGUUCACGUCGCAGCCCCUGUCAGACUCAGGUGAAUCCGCGUAUUCUGCCGUAUAUCUC,0.35
23,UAACAGGGGGCCACAGCAGAAGCGUUCACGUCGCAGCCCCUGUCAGACUCCGGUGAAUCUGCGCAUUCUGCCGUUUAUCUC,0.27

row,Variant,self-cleavage
1,UAACAGGGGGCCACAGCAGAAGCGUUCACGUCGCAGCCCCUGUCAGACUCUGGAGAAUCUGCGGUUUCUGCUGUAUAUCUC,0.29
2,UAACAGGGGGCCACAGCAGAAGCGUUCACGUCGCAGCCCCUGUCAGACUCUGGAGAAUCUGCGAAUUCUGCUGUAUACCUC,0.59
3,UAACAGGGGGCCACAGCAGAAGCGUUCACGUCGCAGCCCCUGUCAGACUCUGGCGAACCUGCGAAUUCUGCUGUAUAUCUC,0.09
4,UAACAGGGGGCCACAGCAGAAGCGUUCACGUCGCAGCCCCUGUCAGACUCUGGUGAACCUGCGAAUUCUGCUGUAUAUCAC,0.17
5,UAACAGGGGGCCACAGCAGAAGCGUUCACGUCGCAGCCCCUGUCAGACUCUGGUGAAUCAGCGAUUCCUGCUGUAUAUCUC,0.11
6,UAACAGGGGGCCACAGCAGAAGCGUUCACGUCGCAGCCCCUGUCAGACUCUGGUGAAUCAGCGAAUUCUGCAGUAUAUCUC,0.21
7,UAACAGGGGGCCACAGCAGAAGCGUUCACGUCGCAGCCCCUGUCAGACUCUGGUGAAUCAGCGAAUUCUGCUGUAUAUCCC,0.21
8,UAACAGGGGGCCACAGCAGAAGCGUUCACGUCGCAGCCCCUGUCAGACUCUGGUGAAUCCGCGAAUCCUGCUGUAUAUCAC,0.13
9,UAACAGGGGGCCACAGCAGAAGCGUUCACGUCGCAGCCCCUGUCAGACUCUGGUGAAUCCGCGAAUUCCGCUGUAUAUCUC,0.17
10,UAACAGGGGGCCACAGCAGAAGCGUUCACGUCGCAGCCCCUGUCAGACUCUGGUGAAUCUGCGAAAUCCGCCGUAUACCUC,0.18
11,UAACAGGGGGCCACAGCAGAAGCGUUCACGUCGCAGCCCCUGUCAGACUCUGGUGAAUCUGCGAAUCCUGCUUUAUAUCUC,0.28
12,UAACAGGGGGCCACAGCAGAAGCGUUCACGUCGCAGCCCCUGUCAGACUCUGGUGAAUCUGCGAAUUCCGCUGCAUAUCUC,0.22
13,UAACAGGGGGCCACAGCAGAAGCGUUCACGUCGCAGCCCCUGUCAGACUCUGGUGAAUCUGCGAAUUCCGCUGUACAUCUC,0.45
14,UAACAGGGGGCCACAGCAGAAGCGUUCACGUCGCAGCCCCUGUCAGACUCUGGUGAAUCUGCGAAUUCGGCAGUAUAUCUC,0.16
15,UAACAGGGGGCCACAGCAGAAGCGUUCACGUCGCAGCCCCUGUCAGACUCUGGUGAAUCUGCGAAUUCUGCAGCAUAUCUC,0.5
16,UAACAGGGGGCCACAGCAGAAGCGUUCACGUCGCAGCCCCUGUCAGACUCUGGUGAAUCUGCGAAUUCUGCGGAAUAUCUC,0.53
17,UAACAGGGGGCCACAGCAGAAGCGUUCACGUCGCAGCCCCUGUCAGAGUCUGGUGAGUCUGCGAAUUCUGCUGUUUAUCCC,0.65
18,UAACAGGGGGCCACAGCAGAAGCGUUCACGUCGCAGCCCCUGUCAGAGUCUGGCGGACCUGCGAAUUCUGCUGUAUAUCUC,0.35
19,UAACAGGGGGCCACAGCAGAAGCGUUCACGUCGCAGCCCCUGUCAGAUACUGGUGUAUCUGCGAAUUCUGCUGUUUAUCUC,1.14
20,UAACAGGGGGCCACAGCAGAAGCGUUCACGUCGCAGCCCCUGUCAGAUACUGGUGAGUCAGCUAAUUCUGCUGUGUAUCUC,0.18
21,UAACAGGGGGCCACAGCAGAAGCGUUCACGUCGCAGCCCCUGUCAGAUACUGGUGAGUCUGCGAAUUCUGCAGUAUAUCUC,0.4
22,UAACAGGGGGCCACAGCAGAAGCGUUCACGUCGCAGCCCCUGUCAGAUACUGGUGAGUCUGCGAAUUCUGCUGUAUAUCCC,0.33
23,UAACAGGGGGCCACAGCAGAAGCGUUCACGUCGCAGCCCCUGUCAGAUACUGGUGAUUCUGCGAAUCCUGCUGUAUAUCUC,0.15

row,Variant,self-cleavage
1,UAACAGGGGGCCACAGCAGAAGCGUUCACGUCGCAGCCCCUGUCAGAUACUGGUGAAUCUGCGAGUUCUGCUGCAUAUCUC,0.48
2,UAACAGGGGGCCACAGCAGAAGCGUUCACGUCGCAGCCCCUGUCAGAUACUGGUGAAUCUGCGAUUUCUGCUGCAUAUCUC,0.21
3,UAACAGGGGGCCACAGCAGAAGCGUUCACGUCGCAGCCCCUGUCAGAUACUGGUUAAUCUGCGAAUUCUGCCGUAUAUCUC,1.08
4,UAACAGGGGGCCACAGCAGAAGCGUUCACGUCGCAGCCCCUGUCAGAUACAGGUGAAUCCGCGAAAUCUGCUGUGUAUCCC,0.09
5,UAACAGGGGGCCACAGCAGAAGCGUUCACGUCGCAGCCCCUGUCAGAUACUGGUGAACCUGCGAAAUCUGCUGUAUAUCUC,0.08
6,UAACAGGGGGCCACAGCAGAAGCGUUCACGUCGCAGCCCCUGUCAGAUACUGGUGAAUCCGCGAAUUCUGCUGAGUAUCUC,0.23
7,UAACAGGGGGCCACAGCAGAAGCGUUCACGUCGCAGCCCCUGUCAGAUACUGGUGAAUCUGCGAAAUCUGCUGCAUAUCUC,0.21
8,UAACAGGGGGCCACAGCAGAAGCGUUCACGUCGCAGCCCCUGUCAGAUACUGGUGAAUCUGCGAAUACUGCUGUAUACCAC,0.23
9,UAACAGGGGGCCACAGCAGAAGCGUUCACGUCGCAGCCCCUGUCAGAUCCUGGUGGAUCUGCGUAUUCUGCUGUAUAUCCC,0.48
10,UAACAGGGGGCCACAGCAGAAGCGUUCACGUCGCAGCCCCUGUCAGAUCCUGGUGUAUCUGCGAAUUCUGCCGUAUAUCUC,0.48
11,UAACAGGGGGCCACAGCAGAAGCGUUCACGUCGCAGCCCCUGUCAGAUCCUGGUGAGUCUGCGGAUUCUGCUGUAUAUCUC,0.14
12,UAACAGGGGGCCACAGCAGAAGCGUUCACGUCGCAGCCCCUGUCAGAUCCUGGUGAGGCUGCGAUUUCUGGUGUAUAUCUC,0.05
13,UAACAGGGGGCCACAGCAGAAGCGUUCACGUCGCAGCCCCUGUCAGAUCCUGGUGAGUCUGCGAAUUCUGCUGAAUAUCUC,0.64
14,UAACAGGGGGCCACAGCAGAAGCGUUCACGUCGCAGCCCCUGUCAGAUCCUGGUGAUUCCGCGAACUCUGCAGUAUAUCUC,0.04
15,UAACAGGGGGCCACAGCAGAAGCGUUCACGUCGCAGCCCCUGUCAGAUCCUGGUGAUUCUGCGAAUUCUGCCGUAUAUCUC,0.34
16,UAACAGGGGGCCACAGCAGAAGCGUUCACGUCGCAGCCCCUGUCAGAUCCUGGUGAAUCUGCGAGUUCUGCUGUAUGUCUC,0.45
17,UAACAGGGGGCCACAGCAGAAGCGUUCACGUCGCAGCCCCUGUCAGAUCCUGGUGAAUCUGCGAGUACUGCUGUAUAUCUC,0.17
18,UAACAGGGGGCCACAGCAGAAGCGUUCACGUCGCAGCCCCUGUCAGAUCCUGGUGAAUCUGCGAGUUCUGCUGUAUAUCCC,0.19
19,UAACAGGGGGCCACAGCAGAAGCGUUCACGUCGCAGCCCCUGUCAGAUCCUGGUGAAUAUGCAAAUUCUGCUGUAUAUCUC,0.13
20,UAACAGGGGGCCACAGCAGAAGCGUUCACGUCGCAGCCCCUGUCAGAUCCUGAUGAAUCUGCGAAUUCUGCAGUAUAUCUC,0.22
21,UAACAGGGGGCCACAGCAGAAGCGUUCACGUCGCAGCCCCUGUCAGAUCCUGGUGAAUCUCCGAGUCCUGCUGUAUACCUC,0.04
22,UAACAGGGGGCCACAGCAGAAGCGUUCACGUCGCAGCCCCUGUCAGAUCCAGGUGAAUCUGCGAAACCCGCUGUAUAUCUC,0.37

# — the RNAGym collection of RNA variant scans (doi:10.1093/nar/gkz1192)
